From PubChem BioAssay AID1645887 (National Center for Advancing Translational Sciences (NCATS), 2021)
Where “and” joins values, the source holds several entries; their conditions need not be identical. Equal entries are not always repeated. Hit rate of the full screen: of about 16,000 compounds, about 40 (0.2%) were called active. Roughly 1% stayed inconclusive and do not appear here. The call rests on the fitted dose curve; in most records, active means well fitted activation curve with a large enough effect; inconclusive means small, poorly fitted or top-dose-only effect, or another doubt; inactive means no such curve, though single readings can be large or run the other way. The list shows a part of the results.

These compounds were tested against Rap guanine nucleotide exchange factor 4 (Homo sapiens) (UniProt Q8WZA2) (assay: Validation qHTS for agonist of cAMP-regulated guanine nucleotide exchange factor 4 (EPAC2)). Conditions: EPAC2 Rap1B BODIPY-GDP exchange, fluorescence; activation: active compounds read high.
Description: Principle Investigator: Xiaodong Cheng Ph.D.
The University of Texas Medical Branch, […], TX
In multi-cellular eukaryotic organisms, the effects of cAMP are transduced by two ubiquitously-expressed intracellular cAMP receptors, the classic protein kinase A/cAMP-dependent protein kinase (PKA/cAPK) and the more recently discovered exchange protein directly activated by cAMP/cAMP-regulated guanine nucleotide exchange factor (EPAC/cAMP-GEF). Both PKA and EPAC are ubiquitously expressed in all tissues, and an increase in intracellular cAMP levels will lead to the activation of both PKA and EPAC. Therefore, careful dissections of the individual role and relative contribution of EPAC and PKA within the overall cAMP signaling in various model systems are critical for further elucidating the mechanism of cAMP signaling. To date no EPAC-specific antagonists and agonist, as well as isoform-specific agonists have been reported, and developing EPAC-specific pharmacological probes to determine the physiological functions that EPAC play in the overall cAMP-mediated signaling remains a major challenge within the research field. Furthermore, identified regulators of EPAC may lead to new mechanism-based therapeutic strategies specifically targeting the EPAC / cAMP-signaling components as EPAC has been implicated to play important roles in major human pathological conditions such as diabetes, heart disease, and cancer.
This qHTS will be used to screen the Molecular Libraries Small Molecule Repository (MLSMR) as a concentration-titration series using the NCGC unique quantitative screening (qHTS) platform to find activators for EPAC1. In addition, this assay will also be used as a counterscreen for the EPAC2 qHTS. This fluorescent based assay is developed and validated for EPAC1 that measures exchange using EPAC effector Rap1 complex with BODIPY-GDP, a GDP analog with a tethered fluorophores. Activators are identified by monitoring the change in fluorescence signal as the exchanged free BODIPY-GDP has a reduced fluorescence compared to Rap1-bound BODIPY-GDP. Increase in signal (activation) is the desired outcome for the EPAC1 agonist while no activity in this assay is desired for the EPAC2 agonist counterscreen.
[1] de Rooij, J., Zwartkruis, F. J., Verheijen, M. H., Cool, R. H., Nijman, S. M., Wittinghofer, A., and Bos, J.L. (1998) Nature 396, 474-477.
Briefly, three uL of reagents (100 nM EPAC2, 250 nM RAP1B-BODIPY-GDP, 50 uM GDP) were dispensed into a 1536-well Greiner black solid-bottom medium binding assay plate. Controls and test compounds (23 nL) were transferred to the plate via a Kalypsys pin tool equipped with a 1536-pin array. The plates were centrifuged at 1,000 rpm for 15 seconds followed by 5 minute incubation at room temperature. The assay plates were read at 5 minute intervals for 30 minutes in the ViewLux plate reader using 480nm excitation and 540nm emission filters. The results were normalized to the agonist positive control of 6.5 mM cAMP.
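Further: exchange makes BODIPY-GDP fluorescence drop when released from Rap1B; series mostly up to about 150 µM.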
On the % scale 0 is the no-effect control and ±100 the full control effect.

UniProt Q8WZA2, sequence (Q8WZA2 whole entry, looked up): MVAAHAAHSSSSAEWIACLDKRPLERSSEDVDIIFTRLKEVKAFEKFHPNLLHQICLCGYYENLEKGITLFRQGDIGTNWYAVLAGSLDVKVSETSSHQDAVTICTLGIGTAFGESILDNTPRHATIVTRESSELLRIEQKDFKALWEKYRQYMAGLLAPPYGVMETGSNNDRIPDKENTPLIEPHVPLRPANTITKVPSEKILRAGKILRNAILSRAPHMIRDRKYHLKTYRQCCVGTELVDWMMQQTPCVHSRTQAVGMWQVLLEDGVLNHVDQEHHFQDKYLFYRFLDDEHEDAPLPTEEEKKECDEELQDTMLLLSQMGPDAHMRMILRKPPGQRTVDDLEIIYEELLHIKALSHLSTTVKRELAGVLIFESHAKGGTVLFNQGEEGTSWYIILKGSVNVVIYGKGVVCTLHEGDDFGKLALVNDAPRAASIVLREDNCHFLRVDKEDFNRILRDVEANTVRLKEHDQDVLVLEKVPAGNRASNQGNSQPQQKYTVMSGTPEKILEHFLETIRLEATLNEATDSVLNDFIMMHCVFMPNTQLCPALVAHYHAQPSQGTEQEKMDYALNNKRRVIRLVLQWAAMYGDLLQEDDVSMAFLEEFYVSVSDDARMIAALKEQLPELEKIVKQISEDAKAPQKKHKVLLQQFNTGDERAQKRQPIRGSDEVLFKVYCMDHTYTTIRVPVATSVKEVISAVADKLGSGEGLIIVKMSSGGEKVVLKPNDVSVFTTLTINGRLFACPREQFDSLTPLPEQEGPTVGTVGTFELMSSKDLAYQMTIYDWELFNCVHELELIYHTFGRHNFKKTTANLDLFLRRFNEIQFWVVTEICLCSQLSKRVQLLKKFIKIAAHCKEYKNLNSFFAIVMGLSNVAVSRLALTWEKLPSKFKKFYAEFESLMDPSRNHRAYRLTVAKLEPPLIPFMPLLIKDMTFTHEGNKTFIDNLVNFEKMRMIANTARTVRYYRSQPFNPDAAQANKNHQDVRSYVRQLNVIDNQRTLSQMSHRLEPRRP

activation, inactive:
CNc1ncnc2c1ncn2[C@H]1C[C@H](OP(=O)(O)O)[C@H](COP(=O)(O)O)O1 0.269%
Cc1c(C(=O)NCCC2CCCN2C)cnn1-c1nccc(-c2ccccc2F)n1 (centres undefined) -8.53%
CC(C)Cc1nc2cc(NS(=O)(=O)N(C)C)cc(C(=O)N3CCc4ccccc4C3)c2n1C -12.1%
CN(C)c1ncc2nc(-c3cc(F)cc(F)c3)c(=O)n(C)c2n1 16.6%
COc1ccc(-n2c(=O)c(CCc3ccccc3)nc3cnc(N4CCN(C)CC4)nc32)cc1 0.896%
c1cc(NC2CC2)nc(-c2ccoc2)n1 1.74%
CC(C)CN(C[C@@H](OP(=O)(O)O)[C@H](Cc1ccccc1)NC(=O)O[C@H]1CCOC1)S(=O)(=O)c1ccc(N)cc1 -2.37%
C[C@@H](CC#N)CN1CC[C@H](C(C)(C)C)CCC1=O -18.2%
O=c1c(CCc2ccccc2)nc2cncnc2n1-c1ccccc1 -15.2%
COc1cccc2oc(-c3ccc(O)cc3)cc(=O)c12 -0.534%
COc1ccc(-n2c(CNC(=O)c3ccccc3C(F)(F)F)nnc2SC)cc1 -5.83%
CN1CCN(c2ccnc(-c3cccc(NS(C)(=O)=O)c3)n2)CC1 -16.4%
Cc1ccc2c(CC(=O)N3CCOc4ccc(CN5CCOCC5)cc4C3)cc(=O)oc2c1 7.53%
CN1[C@@H]2CC[C@H]1CC(NC(=O)n1c(=O)[nH]c3ccccc31)C2 (some centres undefined) -9.84%
N[C@@H](C(=O)N[C@@H]1C(=O)N2C(C(=O)O)=C(Cl)CS[C@H]12)c1ccccc1 -15.5%
Cc1ccc2c(c1)ncc[n+]2CC(=O)c1ccc(F)cc1 -42.2%
COc1ccc(CCC(=O)c2c(O)cc(OC3OC(CO)C(O)C(O)C3O[C@@H]3OC(C)C(O)C(O)C3O)cc2O)cc1O (some centres undefined) 4.23%
COc1cccc(Cn2c(=O)c(-c3ccccc3)nc3cnc(N4CCN(C)CC4)nc32)c1 -12.1%
COc1cc(C[C@@H]2NCCc3cc(O)c(O)cc32)cc(OC)c1OC -23.2%
COc1ccc(NC(=O)[C@@H]2CC=C[C@@H]3CCN(C4CC4)C(=O)[C@@H]32)cc1 -8.93%
CCC(C)(C)C(=O)O[C@@H]1C[C@@H](C)C=C2C=C[C@H](C)[C@H](CC[C@@H]3C[C@@H](O)CC(=O)O3)[C@H]21 -34.3%
CC(=O)O[C@](C)(CCC=C(C)C)C1CC=C(C)CC1 (some centres undefined) -9.98%
COc1ccc(N2C(=O)[C@@H]3C[C@H]2CN3Cc2cccn2-c2nccs2)cc1Cl 2.5%
Cc1cc2c(c(-c3cnccn3)c1)OC(CNC(=O)c1cc(Cl)ccc1F)C2 (centres undefined) 5.25%
Cc1ncc2c(c1CNS(=O)(=O)c1cccs1)CCN(C(=O)/C=C/c1ccc(F)cc1F)C2 -0.522%
Cc1cc(C(=O)NCc2nnc3n2CCN(Cc2ccc(C)c(C)c2)CC3)c(C)o1 -7.7%
CC(=O)c1ccccc1C(=O)NCC1Cc2cccc(-c3cccnc3)c2O1 (centres undefined) -2.38%
O=C(c1cncs1)N(Cc1cc2cc3c(cc2nc1N1CCOCC1)CCC3)CC1CCCO1 (centres undefined) 3.37%
COc1ccc(C(=O)NCc2ccc(OCCN(C)C)cc2)cc1OC -14.5%
O=C(Nc1ncc([N+](=O)[O-])s1)c1cccs1 -35.8%
Cc1ccccc1C1(CC(=O)N2CCCC(C)C2)CC(=O)N(Cc2cccnc2)C1=O (centres undefined) -4.54%
N#Cc1ccccc1-c1ccc2ncnc(N3CCNCC3)c2c1 0.382%
O=C(O)c1cccc(/C=C2/C[C@@H]3[C@@H](/C=C/[C@@H](O)C4CCCCC4)[C@H](O)C[C@@H]3O2)c1 15.9%
C=CC[C@H](N)C(=O)O -20.3%
Brc1ccc([C@H]2CN3CCSC3=N2)cc1 -10.4%
CC(C)NC(=O)N1CCC2(CC1)CCN(C(=O)c1cnccn1)CC2 -2.54%
C[C@@H]1[C@H](c2ccccc2)OCCS(=O)(=O)N1Cc1ccccc1Br -14.3%
CSc1nccc(-c2cc(Cl)c3c(c2)CC(CNC(=O)c2nonc2C)O3)n1 (centres undefined) -3.78%
CCc1nnc(NS(=O)(=O)c2ccc(N)cc2)s1 -6.74%
CCNc1ncc2nc(-c3cn(C)c4ccccc34)c(=O)n(C[C@H]3CCCO3)c2n1 -9.01%
O=c1cnc2cnc(Oc3cccc(Cl)c3)nc2n1C1CC1 -19.8%
Nc1ncnc(Nc2ccc(Cl)cc2)n1 -15.2%
N=c1ccn2c(n1)O[C@@H]1[C@H](O)[C@H](CO)O[C@@H]12 1.16%
COc1c(O)cc2c(-c3ccccc3)cc(=O)oc2c1OC -3.44%
COc1cccc(CNC(=O)c2c(OC)cc(=O)n3c2CCN(C(=O)c2ccc(C)cc2C)CC3)c1 -3.66%
CCCCCCCCCCC1=C(C)C(=O)C(OC)=C(OC)C1=O -3.86%
COc1ccc(-c2coc3cc(OC4OC(CO)C(O)C(O)C4O)cc(O)c3c2=O)cc1 (centres undefined) -6.61%
COc1cc2c(cc1OC)[C@H](C)N(CC1C(=O)O[C@@H]3C[C@@]4(C)CCC[C@H](C)[C@@]45OC5[C@H]13)CC2 (some centres undefined) 5.77%
C[C@H]1CN(Cc2ccccc2)C(=O)[C@@H]1CC(=O)NCc1ccccc1 -20%
O=C1CCC[C@@H]2Cc3nc4ccc(Cl)cc4cc3[C@@H]3CCN1[C@H]23 -18.8%
O=c1cc(-c2cccc(O)c2)oc2cccc(O)c12 -1.55%
COc1cccc(CN2CCC3(CC2)c2ccccc2[C@@H](NC(=O)c2ccccc2)[C@@H]3O)c1O -21.7%
O=C(O)c1ccccc1Nc1ccccc1 2.72% [middle of 4 runs]
Cc1cc(C(=O)Nc2ccccc2-c2nc(CNC(=O)c3ccc(F)cc3F)c(C)o2)c(C)o1 -16.5%
CN(C)C(=O)c1ccc(-c2ccc3ncnc(Nc4ccccc4)c3c2)cc1 -11.1%
CCn1c(-c2ccccc2F)nc2cc(NC(C)=O)cc(C(=O)N(C)Cc3cn(C)nc3C)c21 3.4%
O=C1CC(c2ccc(O[C@@H]3OC(CO)[C@@H](O)C(O)C3O)cc2)Oc2cc(O)ccc21 (some centres undefined) -18.4%
CC(C)C(NS(C)(=O)=O)c1nnc2n1CCN(Cc1ccnc3ccccc13)CC2 (centres undefined) -16.4%
CCCCCCCCCCCCCCCC(=O)OC(CC(=O)O)C[N+](C)(C)C (centres undefined) -22.5% and -85%
COc1cc([C@@H]2c3cc4c(cc3C(O[C@@H]3O[C@@H]5COC(c6cccs6)O[C@H]5[C@H](O)[C@H]3O)C3COC(=O)[C@@H]32)OCO4)cc(OC)c1O (some centres undefined) -28.2%
O=C(/C=C/c1ccc(OCc2ccccc2)cc1)c1cccs1 -17.1%
COc1ccc(C(=O)NCCN2Cc3cc(C)ccc3OC(C)C2)c(OC)n1 (centres undefined) -1.16%
CC1NC(C(=O)O)Cc2c1[nH]c1ccccc21 (centres undefined) 1.79%
CC(C)CC(NP(=O)(O)O[C@@H]1O[C@@H](C)[C@H](O)[C@@H](O)[C@H]1O)C(=O)NC(Cc1c[nH]c2ccccc12)C(=O)O (some centres undefined) -15.6%
Cc1cccc(CNc2ncncc2-c2ccccc2C)c1 -7.7%
O=S(=O)(c1ccccc1)N1CCC2(CCN(Cc3ccccc3)CC2)CC1 2.74%
Cc1ccc(S[C@@H](CCN2CC[C@H](C)CCC2=O)c2ccccc2)cc1 -2.26%
COc1ccc(NC(=O)N2CC[C@@]3(CCCNC3)C2)cc1 -13.6%
Cc1nc2cc(NC(=O)[C@@H]3C[C@@H](Sc4ccccn4)CN3C3CCCCCC3)ccc2s1 -9.56%
CCCN(CCc1cccs1)[C@H]1CCc2c(O)cccc2C1 4.65%
COC(=O)[C@H]1[C@@H]2C[C@H]3c4[nH]c5ccccc5c4CCN3C[C@@H]2CC[C@@H]1O -2.47%
CCOC(=O)N1CCN(Cc2ccc3c(c2)CN(C(=O)c2cc(-c4ccccc4)no2)CCO3)CC1 -9.88%
CC(=O)N1CCC2(CC1)CN(c1ccccn1)C2 -1.03%
CC(=O)N1CCC2(CCCN(Cc3cc(C(F)(F)F)cc(C(F)(F)F)c3)C2)CC1 -37.3%
Cc1cc(=O)n(-c2ccccc2)n1C 4.36% and 10.5%
O=C1CCN(Cc2ccc(Br)cc2)CCN1[C@H](CO)Cc1ccccc1 -0.692%
Cc1csc[n+]1CC(=O)c1ccccc1 -4.38%
CN(C)c1cccc(C(=O)NCC2Cc3cccc(-c4cncnc4)c3O2)c1 (centres undefined) -0.0867%
COc1cc(NS(=O)(=O)c2ccc(N)cc2)nc(C)n1 -6.43%
CCCCCC(CC(=O)O)C(=O)O (centres undefined) -4.17%
CO[C@H]1[C@H](NC(=O)c2ccsc2)c2ccccc2C12CCN(Cc1c(O)ccc3ccccc13)CC2 -7.57%
CO[C@H]1O[C@@H]2O[C@@]3(C)CC[C@H]4[C@H](C)CC[C@@H]([C@H]1C)[C@@]24OO3 1.36%
Cc1ccc(C(=O)Nc2cccc(-c3nc(CNC(=O)c4cccc(C)c4C)c(C)o3)c2)s1 -13.5%
CN(C)c1ncc2nc(-c3ccc(Cl)cc3)c(=O)n(-c3ccccc3)c2n1 -6.01%
